From the supplement of paper PMC12217912
The other results are listed elsewhere or left out. Sequences were assembled here from the parent chain. Inactive controls read about 0.05.

B1: TEV protease; numbered along this chain (parent)
chain: MGESLFKGPRDYNPISSSICHLTNESDGHTTSLYGIGFGPFIITNKHLFRRNNGTLVVQSLHGVFKVKDTTTLQQHLVDGRDMIIIRMPKDFPPFPQKLKFREPQREERICLVTTNFQTKSMSSMVSDTSCTFPSGDGIFWKHWIQTKDGQCGSPLVSTRDGFIVGIHSASNFTNTNNYFTSVPKNFMELLTNQEAQQWVSGWRLNADSVLWGGHKVFMVKPEEPFQPVKEATQL

Variants of: B1
Assay: raw area under fraction-flipped curve 0-4 h after induction (AUC4h, not background-subtracted), DNA-recorder readout of cleavage of the substrate (dimensionless); higher = more cleavage of the substrate by the protease variant
Conditions: temperature: 34 °C; time window: 0-4 h after rhamnose induction
Protocol: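 In vivo DNA recorder in E. coli TOP10(DE3) ΔrhaA at 34 °C. Each TEVp single-site mutant (parent TEVp 0) is paired with a single-site variant of the 7-mer TEVs (canonical ENLYFQ|S). The substrate sits between flexible linkers in a Bxb1-sfGFP-TEVs-SsrA fusion, so cleavage stabilises Bxb1 and speeds flipping of a recombination array, read by NGS. The value is the raw area under the fraction-flipped curve over 0-4 h after rhamnose induction (AUC4h), with ≥20 reads per time point. It is not background-subtracted; inactive controls average about 0.047.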
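Further: Bxb1 expression induced with 0.2% (w/v) L-rhamnose at OD600 near 0.5, cultures sampled hourly, flipped fraction per protease–substrate barcode pair counted by paired-end Illumina sequencing.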

Variant	area with substrate ENLYFAS	area with substrate ENLYFES	area with substrate ENLYFFS	area with substrate ENLYFGS	area with substrate ENLYFHS	area with substrate ENLYFIS	area with substrate ENLYFLS	area with substrate ENLYFMS	area with substrate ENLYFPS	area with substrate ENLYFSS	area with substrate ENLYFTS	area with substrate ENLYFYS	area with substrate ENLYFCS	area with substrate ENLYFWS	area with substrate ENLYFDS	area with substrate ENLYFNS	area with substrate ENLYFRS	area with substrate ENLYFVS	area with substrate ENLYFKS
MGLSLFKGPRDYNPISSSICHLTNESDGHTTSLYGIGFGPFIITNKHLFRRNNGTLVVQSLHGVFKVKDTTTLQQHLVDGRDMIIIRMPKDFPPFPQKLKFREPQREERICLVTTNFQTKSMSSMVSDTSCTFPSGDGIFWKHWIQTKDGQCGSPLVSTRDGFIVGIHSASNFTNTNNYFTSVPKNFMELLTNQEAQQWVSGWRLNADSVLWGGHKVFMVKPEEPFQPVKEATQL [E3L]	0.0666	0.0596	0.0776	0.0828	0.051	0.059	0.0584	0.0647	0.0442	0.0518	0.0657	0.0489	–	–	–	–	–	–	–
MGESKFKGPRDYNPISSSICHLTNESDGHTTSLYGIGFGPFIITNKHLFRRNNGTLVVQSLHGVFKVKDTTTLQQHLVDGRDMIIIRMPKDFPPFPQKLKFREPQREERICLVTTNFQTKSMSSMVSDTSCTFPSGDGIFWKHWIQTKDGQCGSPLVSTRDGFIVGIHSASNFTNTNNYFTSVPKNFMELLTNQEAQQWVSGWRLNADSVLWGGHKVFMVKPEEPFQPVKEATQL [L5K]	0.0568	0.0708	0.0628	–	0.0482	0.0567	–	0.0673	0.0434	–	–	–	0.0538	0.0258	–	–	–	–	–
MGESLDKGPRDYNPISSSICHLTNESDGHTTSLYGIGFGPFIITNKHLFRRNNGTLVVQSLHGVFKVKDTTTLQQHLVDGRDMIIIRMPKDFPPFPQKLKFREPQREERICLVTTNFQTKSMSSMVSDTSCTFPSGDGIFWKHWIQTKDGQCGSPLVSTRDGFIVGIHSASNFTNTNNYFTSVPKNFMELLTNQEAQQWVSGWRLNADSVLWGGHKVFMVKPEEPFQPVKEATQL [F6D]	0.0646	0.0703	0.0685	–	–	0.0749	0.0605	0.0512	0.0613	0.068	0.0566	0.063	–	–	0.0582	0.0699	0.0513	0.0568	–
MGESLIKGPRDYNPISSSICHLTNESDGHTTSLYGIGFGPFIITNKHLFRRNNGTLVVQSLHGVFKVKDTTTLQQHLVDGRDMIIIRMPKDFPPFPQKLKFREPQREERICLVTTNFQTKSMSSMVSDTSCTFPSGDGIFWKHWIQTKDGQCGSPLVSTRDGFIVGIHSASNFTNTNNYFTSVPKNFMELLTNQEAQQWVSGWRLNADSVLWGGHKVFMVKPEEPFQPVKEATQL [F6I]	0.0516	0.0662	–	–	–	0.0466	–	0.0617	0.0552	0.0541	0.0499	–	–	–	–	0.0759	–	–	–
MGESLPKGPRDYNPISSSICHLTNESDGHTTSLYGIGFGPFIITNKHLFRRNNGTLVVQSLHGVFKVKDTTTLQQHLVDGRDMIIIRMPKDFPPFPQKLKFREPQREERICLVTTNFQTKSMSSMVSDTSCTFPSGDGIFWKHWIQTKDGQCGSPLVSTRDGFIVGIHSASNFTNTNNYFTSVPKNFMELLTNQEAQQWVSGWRLNADSVLWGGHKVFMVKPEEPFQPVKEATQL [F6P]	0.0491	0.0745	–	0.0552	0.0656	0.0592	–	–	–	0.0672	0.0512	–	0.0523	0.0557	0.0637	0.07	–	0.0278	0.0539
MGESLGKGPRDYNPISSSICHLTNESDGHTTSLYGIGFGPFIITNKHLFRRNNGTLVVQSLHGVFKVKDTTTLQQHLVDGRDMIIIRMPKDFPPFPQKLKFREPQREERICLVTTNFQTKSMSSMVSDTSCTFPSGDGIFWKHWIQTKDGQCGSPLVSTRDGFIVGIHSASNFTNTNNYFTSVPKNFMELLTNQEAQQWVSGWRLNADSVLWGGHKVFMVKPEEPFQPVKEATQL [F6G]	0.0497	–	0.0659	–	0.0724	0.0466	–	–	0.0385	–	–	–	–	–	–	0.0654	–	–	–
MGESLSKGPRDYNPISSSICHLTNESDGHTTSLYGIGFGPFIITNKHLFRRNNGTLVVQSLHGVFKVKDTTTLQQHLVDGRDMIIIRMPKDFPPFPQKLKFREPQREERICLVTTNFQTKSMSSMVSDTSCTFPSGDGIFWKHWIQTKDGQCGSPLVSTRDGFIVGIHSASNFTNTNNYFTSVPKNFMELLTNQEAQQWVSGWRLNADSVLWGGHKVFMVKPEEPFQPVKEATQL [F6S]	0.0607	0.0714	0.0736	–	–	0.0617	–	–	0.0922	0.058	0.0466	–	0.0423	–	–	0.0623	–	0.0467	–
MGESLWKGPRDYNPISSSICHLTNESDGHTTSLYGIGFGPFIITNKHLFRRNNGTLVVQSLHGVFKVKDTTTLQQHLVDGRDMIIIRMPKDFPPFPQKLKFREPQREERICLVTTNFQTKSMSSMVSDTSCTFPSGDGIFWKHWIQTKDGQCGSPLVSTRDGFIVGIHSASNFTNTNNYFTSVPKNFMELLTNQEAQQWVSGWRLNADSVLWGGHKVFMVKPEEPFQPVKEATQL [F6W]	0.0566	–	0.0675	0.0686	0.0426	0.0592	–	0.0603	0.0627	0.0364	–	0.0588	–	0.0564	–	0.0701	0.0893	0.0438	0.0581
MGESLFKGIRDYNPISSSICHLTNESDGHTTSLYGIGFGPFIITNKHLFRRNNGTLVVQSLHGVFKVKDTTTLQQHLVDGRDMIIIRMPKDFPPFPQKLKFREPQREERICLVTTNFQTKSMSSMVSDTSCTFPSGDGIFWKHWIQTKDGQCGSPLVSTRDGFIVGIHSASNFTNTNNYFTSVPKNFMELLTNQEAQQWVSGWRLNADSVLWGGHKVFMVKPEEPFQPVKEATQL [P9I]	0.0695	0.0666	0.0614	–	–	0.0649	0.0564	0.0652	0.058	0.0591	0.057	–	–	–	–	0.0736	0.0509	–	–
MGEQLFKGPRDYNPISSSICHLTNESDGHTTSLYGIGFGPFIITNKHLFRRNNGTLVVQSLHGVFKVKDTTTLQQHLVDGRDMIIIRMPKDFPPFPQKLKFREPQREERICLVTTNFQTKSMSSMVSDTSCTFPSGDGIFWKHWIQTKDGQCGSPLVSTRDGFIVGIHSASNFTNTNNYFTSVPKNFMELLTNQEAQQWVSGWRLNADSVLWGGHKVFMVKPEEPFQPVKEATQL [S4Q]	0.0772	0.0588	0.0702	0.0596	0.0475	0.0614	0.0605	–	0.0573	0.049	0.0646	0.0538	0.0612	0.0398	–	0.0569	0.0629	0.0682	0.0435
